Consider one compound from PubChem BioAssay AID686978 (National Center for Advancing Translational Sciences (NCATS), 2013).

In all, about 420,000 compounds went through this assay and about 64,000 (15%) were called active. Not shown: some 27% with an inconclusive outcome. Calls follow the shape of the dose curve; as a rule, active = well fitted inhibition curve with a large enough effect; inconclusive = small, poorly fitted or top-dose-only effect; inactive = flat fitted curve, though single readings scatter. Certain results were filed several times, with different values. The other results are left out here. There may be further records. Values that stand side by side are repeated measurements (runs, samples, wells, individuals or studies).
Potency is read from the fitted curve at half-maximal effect.

The nature of the test: qHTS for Inhibitors of human tyrosyl-DNA phosphodiesterase 1 (TDP1): qHTS in cells in absence of CPT. Also: nearly all actives have a fitted effect of over 55% in size. The settings on record: DT40 Tdp1-/- hTDP1 cells, no CPT, ATP luminescence, 48 h. In general terms: Quantitative high-throughput screening tests each substance at several concentrations.
Regarding `COc1c(C)c2c(c(O)c1C/C=C(\C)CCC(=O)O)C(=O)OC2`, the Potency entry was “active: 184, 150, 366, 376, 114 nM [separate samples]”.
